Reference: PubChem BioAssay AID1745853 (National Center for Advancing Translational Sciences (NCATS), 2022)
Some of the results follow. These are further read-outs of the screen, such as a control signal, another cell line or another target. No call is given for them.

Columns and labels:
Test in all cases: Primary Screen for Target Class Profiling of Small Molecule Inhibitors of Methyltransferases
[1] = molecular target: Glycine N-methyltransferase (Homo sapiens) (UniProt Q14749); settings: purified enzyme, MTase-Glo SAH luminescence; measured here: GNMT inhibition; at 40 µM; stronger effect = lower value
Procedure, shortened: (§1)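 Each enzyme was reacted with SAM and its substrate, with compounds tested once at 40 uM; SAH formed was read by MTase-Glo luminescence.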

[2] = molecular target: Guanidinoacetate N-methyltransferase (Homo sapiens) (UniProt Q14353); settings: purified enzyme, MTase-Glo SAH luminescence; measured here: GAMT inhibition; at 40 µM; stronger effect = lower value
Procedure, shortened: as §1

[3] = molecular target: Histamine N-methyltransferase (Homo sapiens) (UniProt P50135); settings: purified enzyme, MTase-Glo SAH luminescence; measured here: HNMT inhibition; at 40 µM; stronger effect = lower value
Procedure, shortened: as §1

[4] = molecular target: Nicotinamide N-methyltransferase (Homo sapiens) (UniProt P40261); settings: purified enzyme, MTase-Glo SAH luminescence; measured here: NNMT inhibition; at 40 µM; stronger effect = lower value
Procedure, shortened: as §1

[5] = molecular target: Phenylethanolamine N-methyltransferase (Homo sapiens) (UniProt P11086); settings: purified enzyme, MTase-Glo SAH luminescence; measured here: PNMT inhibition; at 40 µM; stronger effect = lower value
Procedure, shortened: as §1
On the % scale 0 is the no-effect control and ±100 the full control effect.

| SMILES | activity change, negative = inhibition [1] [%] | activity change, negative = inhibition [2] [%] | activity change, negative = inhibition [3] [%] | activity change, negative = inhibition [4] [%] | activity change, negative = inhibition [5] [%] |
| --- | --- | --- | --- | --- | --- |
| O=C(C1CCN([S+](=O)([O-])c2cccs2)C1)N1CCC(c2nc3ncccc3[nH]2)CC1 (configuration not stated) | 40.1 | 4.55 | -3.23 | -0.818 | -3.81 |
| O=C1[C@@H]2C[C@@H](CN2Cc2ccc3c(c2)OCO3)Oc2ccccc2N1CC1CC1 | -4.88 | -2.77 | -2.49 | -13.6 | -0.692 |
| Cc1c(Cl)cccc1N1C(=O)c2cc3sccc3n2CC1(C)C(=O)NC1CCC(C)CC1 (configuration not stated) | 4.43 | 2.65 | 7.04 | 1.91 | 0.5 |
| CC[C@H]1OC(=O)[C@H](C)[C@@H](O[C@H]2C[C@@](C)(OC)[C@@H](O)[C@H](C)O2)[C@H](C)[C@@H](O[C@H]2O[C@H](C)C[C@H](N(C)C)[C@H]2O)[C@](C)(O)C[C@@H](C)C(=O)[C@H](C)[C@@H](O)[C@]1(C)O | -2 | – | 6.41 | – | – |
| CC(C)(C)c1cc2n(n1)CC(C)(C(=O)NC1CCCCCC1)N(c1ccc(F)cc1)C2=O (configuration not stated) | -5.42 | 2.45 | -0.908 | -6.73 | -4.29 |
| CCCn1c(=O)c2ccc(C(=O)NC(C)C)cc2n2c(=O)n(CC(=O)Nc3ccc(C)c(F)c3)nc12 | -3.47 | 0.932 | -2.86 | -1.22 | -0.408 |
| CCOc1nc2cccc(C(=O)OCc3oc(=O)oc3C)c2n1Cc1ccc(-c2ccccc2-c2noc(O)n2)cc1 | -4.85 | -1.46 | 13.4 | -21.1 | -4.65 |
| CCC(C)NC(=O)c1ccc2c(=O)n(C)c3nn(CC(=O)Nc4cccc(C)c4)c(=O)n3c2c1 (configuration not stated) | -1.58 | 0.198 | 2.86 | 0.231 | 4.08 |
| Cc1sc2ccn(CC(C)C)c(=O)c2c1C(=O)N1CCCCC1 | -8.64 | -2.25 | 0.57 | -5.84 | -13 |
| O=C(c1cc(-c2ccsc2)c2nncn2n1)N1CCN(Cc2ccccc2)CC1 | -9.42 | -10.9 | -5.87 | -22.4 | -21.5 |
| O=S(=O)(Nc1cccc(F)c1)c1cccc(-c2nc(-c3ccccc3)no2)c1 | 4.21 | 0 | -1.09 | -11.2 | 2.84 |
| CCNc1ncc(C(=O)N[C@H](c2cnn(C)c2)C2CC(O)C2)cn1 (some centres not stated) | 0.453 | 0.063 | 2.03 | 2.24 | 1.06 |
| O=C(NCc1ccc(Cl)nc1)c1cn2c(n1)CN(C(=O)c1cccnc1)CC2 | -7.79 | -4.42 | -1.18 | -13.1 | -7.09 |
| CCc1cccc2c(C(CC(=O)N3CCCC3)c3cccc([N+](=O)[O-])c3)c[nH]c12 (configuration not stated) | -5.33 | -3.06 | -3.27 | -13.3 | -1.52 |
| COc1cccc(N2C(=O)NC(=NC3CCCC3)C23CCN([S+](=O)([O-])c2cccs2)C3)c1 (configuration not stated) | -4.04 | -5.14 | -1.46 | -9.68 | -4.78 |
| Cn1cc(CCNC(=O)c2ccc3oc(-c4cccc(F)c4)nc3c2)cn1 | -1.17 | -1.35 | 2.66 | -3.46 | -0.883 |
| CC(C)Cn1c(=O)c2ccc(C(=O)NC3CCCCC3)cc2n2c(=O)n(CC(=O)NC(C)(C)C)nc12 | 5.42 | 1.22 | 10.5 | 6.75 | 7.71 |
| Cc1ccc(Cl)cc1N1CCN(CCNC(=O)CCc2nnc3n(C)c(=O)c4ccccc4n23)CC1 | -9.94 | 1.24 | -13.6 | -9.06 | -3.8 |
| COc1cccc(-c2ccc([C@@H](Oc3cc(-c4ccc(C[C@H](N)C(=O)O)cc4)nc(N)n3)C(F)(F)F)cc2)c1 | -11.9 | 22.5 | 9.73 | -3.84 | 9.32 |

| SMILES | activity change, negative = inhibition [1] [%] | activity change, negative = inhibition [2] [%] | activity change, negative = inhibition [3] [%] | activity change, negative = inhibition [4] [%] | activity change, negative = inhibition [5] [%] |
| --- | --- | --- | --- | --- | --- |
| CC(C)c1nc2c(NC(=O)Nc3cccc(Cl)c3)cccn2n1 | -9.92 | -4.18 | -1.89 | -5.14 | -22.3 |
| Cc1ccc(CNC(=O)c2cc3n(n2)CC(C)(C(=O)NC2CCCCCC2)N(C)C3=O)cc1 (configuration not stated) | 1.83 | 0.31 | 8.7 | 3.01 | 4.79 |
| CC(C)n1c(=O)c2ccc(C(=O)NC3CCCCC3)cc2n2c(=O)n(CC(=O)NCc3ccccc3)nc12 | -4.64 | -3.37 | -4.93 | -8.93 | -6.26 |
| C/C=C/c1ccc2oc(-c3ccc(O)c(OC)c3)c(C)c2c1 | -1.02 | -0.009 | 1.56 | -15.4 | -11.3 |
| O=C1c2c(O[C@@H]3O[C@H](CO)[C@@H](O)[C@H](O)[C@H]3O)cc(O)cc2OC1(O)Cc1ccc(O)cc1 (some centres not stated) | 6.66 | 6.43 | 13.4 | -4.97 | 5.66 |
| COc1ccc(-c2nc3c(c(=O)[nH]2)CCN(C(=O)CSc2ccccc2)C3)cc1 | -7.79 | -0.062 | -1.95 | -3.75 | 14.8 |
| O=C(NCC1CC1)C1CN(Cc2ccccc2)C(=O)N1 (configuration not stated) | -3.67 | -5.32 | -0.835 | -6.73 | -15.4 |
| CC(C)CCNC(=O)C1(C)Cn2c(ccc2-c2ccco2)C(=O)N1CC(C)c1ccccc1 (configuration not stated) | -4.35 | 6.17 | -0.415 | -4.98 | 1.22 |
| CC(C)c1c(O)ccc2c1CC[C@H]1C(C)(C)CCC[C@]21C | -9.14 | -9.48 | 1.79 | -27.7 | -3.5 |
| COc1cc(C(O)CO)ccc1OS(=O)(=O)O (configuration not stated) | -1.8 | 4.99 | -0.926 | -2.59 | 9.53 |
| c1cc(-c2cnn3cc(-c4ccc(N5CCNCC5)cc4)cnc23)c2cccnc2c1 | -0.827 | 9.15 | 4.08 | -14.9 | 2.53 |
| CC(C)NC(=O)N1CC2ON=C(C(=O)N3CCOCC3)C2C1 (configuration not stated) | -0.529 | -0.29 | 2.04 | -2.77 | -1.63 |
| CN1CCN(c2nc3c(c(=O)[nH]2)CCN(Cc2cn[nH]c2-c2ccc(F)cc2)CC3)CC1 | -3.95 | -0.016 | -8.42 | -0.51 | 6.18 |
| CC(C)OCCCNC(=O)CCc1nnc2n(Cc3ccccc3)c(=O)c3ccccc3n12 | -8.01 | 5.09 | 2.52 | 6.08 | -1.61 |
| CC(C)CCNC(=O)C1(C)Cn2c(cc3ccccc32)C(=O)N1Cc1ccco1 (configuration not stated) | 8.46 | 0 | 12 | 12.6 | 3.85 |
| CCOCCCN1C(=O)c2c(NC(C)=O)c3cc(F)ccc3n2CC1(C)C(=O)NC1CCCCC1 (configuration not stated) | -9.57 | -0.279 | -4.93 | -4.67 | -3.91 |
| O=C(O)c1ccnc2cc(-c3nc4ccccc4n3CCN3CCCCC3)sc12 | -10.6 | -5.77 | -0.702 | -26.2 | -1 |
| CC1(CNC(=O)c2n[nH]c3ccccc23)CCOCC1 | -2.54 | -3.84 | -2.73 | -6.42 | -3.72 |
